Source: PubChem BioAssay AID493208 (National Center for Advancing Translational Sciences (NCATS), 2011)
The campaign covered roughly 44,000 compounds. About 340 (0.77%) were called active. Not shown: some 5% with an inconclusive outcome. The call rests on the fitted dose curve; in most records, active means well fitted inhibition curve with a large enough effect; inconclusive means small, poorly fitted or top-dose-only effect; inactive means flat fitted curve, though single readings scatter. The list shows a part of the results.

assay: Acumen qHTS Assay for Inhibitors of the mTORC1 Signaling Pathway in MEF (Tsc2-/-, p53-/-) Cells: Sytravon; details: phospho-rpS6 immunofluorescence/PI, 24 h; series mostly up to 38.3 µM; activity change, negative = inhibition: at the top concentration; further: nearly all actives have a fitted effect of over 50% in size;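 on activity change, negative = inhibition: plate controls were DMSO for no effect and rapamycin for full effect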
Outline: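 Tsc2-/-, p53-/- mouse embryonic fibroblasts (empty-vector line) exposed to compound 24 hrs at 37 C, fixed, immunostained for phospho-rpS6 and counterstained with propidium iodide. Acumen laser scanning gives % positive cells from Alexa 488/PI ratio, thresholded using 7.5 nM rapamycin; PI count gives viability.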
Potency means the concentration at half of the fitted maximal effect.

SMILES | activity change, negative = inhibition | Potency
CCOc1ccccc1NC(=O)C1CCN(S(=O)(=O)c2ccc(Br)cc2)CC1 | inactive: 0.794% | 
Cc1ccc2c(c1)c(=O)c1ccccc1n2CCCC(=O)Nc1ccc(F)cc1F | inactive: -2.1% | 
O=C(NC1CC(=O)N(c2ccccc2)C1)C1CCCC1 (stereo unspecified) | inactive: -0.492% | 
CC(Sc1ncc(S(=O)(=O)c2ccc(C(C)C)cc2)c(N)n1)C(=O)Nc1ccccc1 (stereo unspecified) | inactive: -8.16% | 
COc1ccc(NC(=O)Cn2c(=O)n(-c3ccc(Cl)cc3)c(=O)c3c(C)c(C(=O)N(C)C)sc32)cc1Cl | inactive: -3.72% | 
COC(=O)c1ccc2nc(C)cc(Nc3ccc(O)cc3)c2c1 | inactive: -11.1% | 
CCOC(=O)c1cc(-c2ccc(F)cc2)n(CCC(=O)Nc2ccccc2OC)c1C | inactive: -1.06% | 
Cc1ccc(CSc2nc(=O)c3c(C)cc(C)nc3n2C2CC2)cc1 | inactive: 0% | 
COC(=O)c1cc(Cl)c(NC(=O)/C=C/c2ccc(Cl)cc2Cl)cc1OC | inactive: -3.22% | 
Cc1cccc(C2NC(=O)c3c(sc4c3CCN(C)C4)N2)c1O (stereo unspecified) | inactive: 6.79% | 
CCOC(=O)c1ccc(NC2=CC(c3ccc(Br)cc3)N(c3ccc(C(=O)OCC)cc3)C2=O)cc1 (stereo unspecified) | inactive: -10.5% | 
Cc1cccc(Oc2nc3c(C)cccn3c(=O)c2/C=C(\C#N)c2nc3ccccc3s2)c1 | inactive: 1.52% | 
CCOC(=O)c1ccc(NC(=O)C(=O)NCc2ccco2)cc1 | inactive: 0.345% | 
COc1cccc(Cc2nc3ccccc3nc2SCC(=O)N2CCc3ccccc32)c1 | inactive: -3.46% | 
O=S(=O)(c1ccccc1)c1nc(-c2cccc(Cl)c2)oc1NCc1ccccc1 | inactive: -8.05% | 
COc1ccc(Br)c2c1-c1nc(NC(=O)c3ccccc3SC)sc1C2 | inactive: -1.16% | 
COCCNC(=O)CSc1nnc(-c2ccc(OC)c(OC)c2)c(-c2ccc(OC)c(OC)c2)n1 | inactive: 0.584% | 
CCOc1ccc(N2CC(c3nc4ccccc4n3CCCOc3ccc(OC)cc3)CC2=O)cc1 (stereo unspecified) | inactive: -7.21% | 
COc1ccccc1-c1c(C)nn2c(N3CCN(c4ccc(Cl)cc4)CC3)cc(C)nc12 | inactive: 4.93% | 
CCCCOc1ccc(S(=O)(=O)Nc2cccc(-c3ccc(N4CCOCC4)nn3)c2)cc1 | inactive: -4.42% | 
CC(Sc1nc(-c2ccccc2)c(C#N)c(=O)[nH]1)C(=O)Nc1ccc(F)cc1 (stereo unspecified) | inactive: -4.2% | 
CCOC(=O)c1ccc(Nc2nc(C)cc(C)n2)cc1 | inactive: -1.31% | 
COc1ccc(N(CC(=O)N2CCN(c3cc(C)ccc3C)CC2)S(=O)(=O)c2c(C)noc2C)cc1 | inactive: 3.46% | 

SMILES | activity change, negative = inhibition | Potency
CC(C)c1ccc(C2c3c(-c4ccccc4O)n[nH]c3C(=O)N2CCc2ccccc2)cc1 (stereo unspecified) | inactive: 2.83% | 
Cc1ccc(-n2ncc3c(NNC(=O)c4ccccc4C)ncnc32)cc1 | inactive: 10.3% | 
COc1ccc(-c2c(C)nn3c(N4CCC(C(=O)NCCC(C)C)CC4)cc(C)nc23)cc1OC | inactive: -17.2% | 
CC(C)CCn1c(SCc2ccc(F)cc2Cl)nc2ccsc2c1=O | inactive: -15.1% | 
CC1=C(C(=O)Nc2ccccc2)C(c2ccc(C(=O)O)cc2)n2nc(SCC(=O)c3ccc(C)cc3)nc2N1 (stereo unspecified) | inactive: 2.36% | 
Cc1ccc(Cn2c(=O)c3c(nc4n3CCN4c3cc(C)cc(C)c3)n(C)c2=O)cc1 | inactive: 11.9% | 
CCN(CC)CCn1c(=N)n(CC(O)COc2ccccc2C)c2ccccc21 (stereo unspecified) |  | active: 11.7 µM
CCc1ccc(-c2[nH]c3c(c2-c2c(-n4cccc4)n(C)c(=O)n(C)c2=O)c(=O)n(C)c(=O)n3C)cc1 | inactive: -8.17% | 
COc1ccc(-c2nc(CCNC(=O)c3cc(OC)c(OC)c(OC)c3)cs2)cc1 | inactive: 1.95% | 
COCCCNC(=O)c1ccc(NC(=O)N2CCCCc3ccccc32)cc1 | inactive: -0.833% | 
COc1ccc(CNC(=O)Cc2c(C)c3c(cc(C)c4c(C)coc43)oc2=O)cc1 | inactive: 2.18% | 
COc1ccc(Cl)cc1NC(=O)CCCn1c(=O)c2cccn2c2cccnc21 | inactive: -15.4% | 
CCCN1CCN(CC2=C(C(=O)OCC)C(c3ccc(Cl)cc3)NC(=O)N2)CC1 (stereo unspecified) | inactive: -13.1% | 
CCOC(=O)N1CCc2c(sc(NCc3ccc(OC)c(Br)c3)c2C(=O)Nc2cc(OC)ccc2OC)C1 | inactive: 1.87% | 
CCOC(=O)c1ccccc1NC(=O)N(Cc1ccc(C)cc1)Cc1cccn1-c1nnc(N2CCCC2=O)s1 | inactive: 1.37% | 
COC(=O)c1c(NC(=O)c2ccc(S(=O)(=O)N3CCCCC3C)cc2)sc2c1CCN(C(C)C)C2 (stereo unspecified) | inactive: -1.25% | 
Cc1ccccc1-c1noc(CSc2nnc(Cc3ccccc3)n2-c2ccc(F)cc2)n1 | inactive: -0.515% | 
COc1ccc(-c2noc(CSc3nnc(-c4ccncc4)n3-c3ccccc3)n2)cc1 | inactive: -6.84% | 
CCC(C)n1c(=N)c(S(=O)(=O)c2ccc(C)cc2)cc2c(=O)n3cc(C)ccc3nc21 (stereo unspecified) | inactive: -1.01% | 
COc1cccc(NC(=O)Cn2c(=O)n(CCCC(=O)NCc3ccc4c(c3)OCO4)c(=O)c3ccccc32)c1 | inactive: -5.85% | 
Cc1ccc(CNC(=O)c2c(-c3ccccc3F)noc2C)o1 | inactive: 14.1% | 
O=C(Nc1ccc(S(=O)(=O)N2CCC(c3nc4ccccc4s3)CC2)cc1)c1ccccc1F | inactive: -21.6% | 
Cc1cccc(C(=O)Nc2ccc(N3CCC(CCN4CCOCC4)CC3)c(C(=O)O)c2)c1 | inactive: -3.13% | 
